{
  "source": "the supplement of paper PMC11876631",
  "note": "± gives the standard deviation of the averaged measurements. Laboratory Escherichia coli strains with one amino-acid change in an essential protein, pooled on minimal glucose agar with carbenicillin or gentamicin at twice the control MIC (plus kanamycin and chloramphenicol for the plasmids), 48 h. Fold change of barcode share against drug-free plates; higher = less susceptible. Active = above 20 in both replicates (the paper's putatively resistant). '<' = one read or none on drug, '>' = one read or none on a drug-free plate. Shares are relative, so most strains fall below 1 when a few take over. Listed are strains with at least 15 reads on both drug-free plates, and hits; most hits rest on fewer reference reads. Replicate rank correlation about 0.5. Edits are read from barcodes.",
  "data": [
    {"molecular_target": "Escherichia coli (laboratory strain)", "assay": "barcode share on antibiotic plates over drug-free plates; higher = less susceptible", "conditions": "antibiotic: gentamicin; 2× MIC (MIC 0.45 µg/mL)", "protocol": "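A pool of E. coli strains, each edited to carry one amino-acid change in an essential protein, was grown for 48 h on minimal glucose agar with or without antibiotic; strain barcodes were sequenced; mean of two replicates.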", "values": [
      {"protein": "ligA V556D (protein) MESIEQQLTELRTTLRHHEYLYHVMDAPEIPDAEYDRLMRELRELETKHPELITPDSPTQRVGAAPLAAFSQIRHEVPMLSLDNVFDEESFLAFNKRVQDRLKNNEKVTWCCELKLDGLAVSILYENGVLVSAATRGDGTTGEDITSNVRTIRAIPLKLHGENIPARLEVRGEVFLPQAGFEKINEDARRTGGKVFANPRNAAAGSLRQLDPRITAKRPLTFFCYGVGVLEGGELPDTHLGRLLQFKKWGLPVSDRVTLCESAEEVLAFYHKVEEDRPTLGFDIDGVVIKVNSLAQQEQLGFVARAPRWAVAFKFPAQEQMTFVRDVEFQVGRTGAITPVARLEPVHVAGVLVSNATLHNADEIERLGLRIGDKVVIRRAGDVIPQVVNVVLSERPEDTREVVFPTHCPVCGSDVERVEGEAVARCTGGLICGAQRKESLKHFVSRRAMDVDGMGDKIIDQLVEKEYVHTPADLFKLTAGKLTGLERMGPKSAQNVVNALEKAKETTFARFLYALGIREVGEATAAGLAAYFGTLEALEAASIEELQKVPDVGIVDASHVHNFFAEESNRNVISELLAEGVHWPAPIVINAEEIDSPFAGKTVVLTGSLSQMSRDDAKARLVELGAKVAGSVSKKTDLVIAGEAAGSKLAKAQELGIEVIDEAEMLRLLGS", "fold change of barcode share": "< 0.0221"},
      {"protein": "ligA I289W (protein) MESIEQQLTELRTTLRHHEYLYHVMDAPEIPDAEYDRLMRELRELETKHPELITPDSPTQRVGAAPLAAFSQIRHEVPMLSLDNVFDEESFLAFNKRVQDRLKNNEKVTWCCELKLDGLAVSILYENGVLVSAATRGDGTTGEDITSNVRTIRAIPLKLHGENIPARLEVRGEVFLPQAGFEKINEDARRTGGKVFANPRNAAAGSLRQLDPRITAKRPLTFFCYGVGVLEGGELPDTHLGRLLQFKKWGLPVSDRVTLCESAEEVLAFYHKVEEDRPTLGFDIDGVVWKVNSLAQQEQLGFVARAPRWAVAFKFPAQEQMTFVRDVEFQVGRTGAITPVARLEPVHVAGVLVSNATLHNADEIERLGLRIGDKVVIRRAGDVIPQVVNVVLSERPEDTREVVFPTHCPVCGSDVERVEGEAVARCTGGLICGAQRKESLKHFVSRRAMDVDGMGDKIIDQLVEKEYVHTPADLFKLTAGKLTGLERMGPKSAQNVVNALEKAKETTFARFLYALGIREVGEATAAGLAAYFGTLEALEAASIEELQKVPDVGIVVASHVHNFFAEESNRNVISELLAEGVHWPAPIVINAEEIDSPFAGKTVVLTGSLSQMSRDDAKARLVELGAKVAGSVSKKTDLVIAGEAAGSKLAKAQELGIEVIDEAEMLRLLGS", "fold change of barcode share": "< 0.0199"},
      {"protein": "ligA I289A (protein) MESIEQQLTELRTTLRHHEYLYHVMDAPEIPDAEYDRLMRELRELETKHPELITPDSPTQRVGAAPLAAFSQIRHEVPMLSLDNVFDEESFLAFNKRVQDRLKNNEKVTWCCELKLDGLAVSILYENGVLVSAATRGDGTTGEDITSNVRTIRAIPLKLHGENIPARLEVRGEVFLPQAGFEKINEDARRTGGKVFANPRNAAAGSLRQLDPRITAKRPLTFFCYGVGVLEGGELPDTHLGRLLQFKKWGLPVSDRVTLCESAEEVLAFYHKVEEDRPTLGFDIDGVVAKVNSLAQQEQLGFVARAPRWAVAFKFPAQEQMTFVRDVEFQVGRTGAITPVARLEPVHVAGVLVSNATLHNADEIERLGLRIGDKVVIRRAGDVIPQVVNVVLSERPEDTREVVFPTHCPVCGSDVERVEGEAVARCTGGLICGAQRKESLKHFVSRRAMDVDGMGDKIIDQLVEKEYVHTPADLFKLTAGKLTGLERMGPKSAQNVVNALEKAKETTFARFLYALGIREVGEATAAGLAAYFGTLEALEAASIEELQKVPDVGIVVASHVHNFFAEESNRNVISELLAEGVHWPAPIVINAEEIDSPFAGKTVVLTGSLSQMSRDDAKARLVELGAKVAGSVSKKTDLVIAGEAAGSKLAKAQELGIEVIDEAEMLRLLGS", "fold change of barcode share": "< 0.014"},
      {"protein": "ligA V288A (protein) MESIEQQLTELRTTLRHHEYLYHVMDAPEIPDAEYDRLMRELRELETKHPELITPDSPTQRVGAAPLAAFSQIRHEVPMLSLDNVFDEESFLAFNKRVQDRLKNNEKVTWCCELKLDGLAVSILYENGVLVSAATRGDGTTGEDITSNVRTIRAIPLKLHGENIPARLEVRGEVFLPQAGFEKINEDARRTGGKVFANPRNAAAGSLRQLDPRITAKRPLTFFCYGVGVLEGGELPDTHLGRLLQFKKWGLPVSDRVTLCESAEEVLAFYHKVEEDRPTLGFDIDGVAIKVNSLAQQEQLGFVARAPRWAVAFKFPAQEQMTFVRDVEFQVGRTGAITPVARLEPVHVAGVLVSNATLHNADEIERLGLRIGDKVVIRRAGDVIPQVVNVVLSERPEDTREVVFPTHCPVCGSDVERVEGEAVARCTGGLICGAQRKESLKHFVSRRAMDVDGMGDKIIDQLVEKEYVHTPADLFKLTAGKLTGLERMGPKSAQNVVNALEKAKETTFARFLYALGIREVGEATAAGLAAYFGTLEALEAASIEELQKVPDVGIVVASHVHNFFAEESNRNVISELLAEGVHWPAPIVINAEEIDSPFAGKTVVLTGSLSQMSRDDAKARLVELGAKVAGSVSKKTDLVIAGEAAGSKLAKAQELGIEVIDEAEMLRLLGS", "fold change of barcode share": "0.0269 ± 0.024"},
      {"protein": "lolB I139A (protein) MPLPDFRLIRLLPLAALVLTACSVTTPKGPGKSPDSPQWRQHQQDVRNLNQYQTRGAFAYISDQQKVYARFFWQQTGQDRYRLLLTNPLGSTELELNAQPGNVQLVDNKGQRYTADDAEEMIGKLTGMPIPLNSLRQWALGLPGDATDYKLDDQYRLSEITYSQNGKNWKVVYGGYDTKTQPAMPANMELTDGGQRIKLKMDNWIVK", "fold change of barcode share": "< 0.0164"},
      {"protein": "lolB L190W (protein) MPLPDFRLIRLLPLAALVLTACSVTTPKGPGKSPDSPQWRQHQQDVRNLNQYQTRGAFAYISDQQKVYARFFWQQTGQDRYRLLLTNPLGSTELELNAQPGNVQLVDNKGQRYTADDAEEMIGKLTGMPIPLNSLRQWILGLPGDATDYKLDDQYRLSEITYSQNGKNWKVVYGGYDTKTQPAMPANMEWTDGGQRIKLKMDNWIVK", "fold change of barcode share": "< 0.0206"},
      {"protein": "lolB L140D (protein) MPLPDFRLIRLLPLAALVLTACSVTTPKGPGKSPDSPQWRQHQQDVRNLNQYQTRGAFAYISDQQKVYARFFWQQTGQDRYRLLLTNPLGSTELELNAQPGNVQLVDNKGQRYTADDAEEMIGKLTGMPIPLNSLRQWIDGLPGDATDYKLDDQYRLSEITYSQNGKNWKVVYGGYDTKTQPAMPANMELTDGGQRIKLKMDNWIVK", "fold change of barcode share": "< 0.0221"},
      {"protein": "lolB I139Q (protein) MPLPDFRLIRLLPLAALVLTACSVTTPKGPGKSPDSPQWRQHQQDVRNLNQYQTRGAFAYISDQQKVYARFFWQQTGQDRYRLLLTNPLGSTELELNAQPGNVQLVDNKGQRYTADDAEEMIGKLTGMPIPLNSLRQWQLGLPGDATDYKLDDQYRLSEITYSQNGKNWKVVYGGYDTKTQPAMPANMELTDGGQRIKLKMDNWIVK", "fold change of barcode share": "< 0.0129"},
      {"protein": "lipA L76D (protein) MSKPIVMERGVKYRDADKMALIPVKNVATEREALLRKPEWMKIKLPADSTRIQGIKAAMRKNGLHSVCEEASCPNDAECFNHGTATFMILGAICTRRCPFCDVAHGRPVAPDANEPVKLAQTIADMALRYVVITSVDRDDLRDGGAQHFADCITAIREKSPQIKIETLVPDFRGRMDRALDILTATPPDVFNHNLENVPRIYRQVRPGADYNWSLKLLERFKEAHPEIPTKSGLMVGLGETNEEIIEVMRDLRRHGVTMLTLGQYLQPSRHHLPVQRYVSPDEFDEMKAEALAMGFTHAACGPFVRSSYHADLQAKGMEVK", "fold change of barcode share": "> 851 [active]"},
      {"protein": "lipA F87A (protein) MSKPIVMERGVKYRDADKMALIPVKNVATEREALLRKPEWMKIKLPADSTRIQGIKAAMRKNGLHSVCEEASCPNLAECFNHGTATAMILGAICTRRCPFCDVAHGRPVAPDANEPVKLAQTIADMALRYVVITSVDRDDLRDGGAQHFADCITAIREKSPQIKIETLVPDFRGRMDRALDILTATPPDVFNHNLENVPRIYRQVRPGADYNWSLKLLERFKEAHPEIPTKSGLMVGLGETNEEIIEVMRDLRRHGVTMLTLGQYLQPSRHHLPVQRYVSPDEFDEMKAEALAMGFTHAACGPFVRSSYHADLQAKGMEVK", "fold change of barcode share": "> 196 [active]"},
      {"protein": "lipA I123Q (protein) MSKPIVMERGVKYRDADKMALIPVKNVATEREALLRKPEWMKIKLPADSTRIQGIKAAMRKNGLHSVCEEASCPNLAECFNHGTATFMILGAICTRRCPFCDVAHGRPVAPDANEPVKLAQTQADMALRYVVITSVDRDDLRDGGAQHFADCITAIREKSPQIKIETLVPDFRGRMDRALDILTATPPDVFNHNLENVPRIYRQVRPGADYNWSLKLLERFKEAHPEIPTKSGLMVGLGETNEEIIEVMRDLRRHGVTMLTLGQYLQPSRHHLPVQRYVSPDEFDEMKAEALAMGFTHAACGPFVRSSYHADLQAKGMEVK", "fold change of barcode share": "> 58.7 [active]"},
      {"protein": "lipA I153W (protein) MSKPIVMERGVKYRDADKMALIPVKNVATEREALLRKPEWMKIKLPADSTRIQGIKAAMRKNGLHSVCEEASCPNLAECFNHGTATFMILGAICTRRCPFCDVAHGRPVAPDANEPVKLAQTIADMALRYVVITSVDRDDLRDGGAQHFADCWTAIREKSPQIKIETLVPDFRGRMDRALDILTATPPDVFNHNLENVPRIYRQVRPGADYNWSLKLLERFKEAHPEIPTKSGLMVGLGETNEEIIEVMRDLRRHGVTMLTLGQYLQPSRHHLPVQRYVSPDEFDEMKAEALAMGFTHAACGPFVRSSYHADLQAKGMEVK", "fold change of barcode share": "> 79.8 [active]"},
      {"protein": "lolC M63Q (protein) MYQPVALFIGLRYMRGRAADRFGRFVSWLSTIGITLGVMALVTVLSVMNGFERELQNNILGLQPQAILSSEHGSLNPQQLPETAVKLDGVNRVAPITTGDVVLQSARSVAVGVMLGIDPAQKDPLTPYLVNVKQTDLEPGKYNVILGEQLASQLGVNRGDQIRVMVPSASQFTPMGRIPSQRLFNVIGTFAANSEVDGYEMLVNIEDASRLMRYPAGNITGWRLWLDEPLKVDSLSQQKLPEGSKWQDWRDRKGELFQAVRMEKNMMGLLLSLIVAVAAFNIITSLGLMVMEKQGEVAILQTQGLTPRQIMMVFMVQGASAGIIGAILGAALGALLASQLNNLMPIIGVLLDGAALPVAIEPLQVIVIALVAMAIALLSTLYPSWRAAATQPAEALRYE", "fold change of barcode share": "< 0.0106"}
    ]}
  ]
}
